Numbering of substitutions follows the chain as printed; changes in the protein carry UniProt numbers. The list shows a part of the results.

Sequences and labels used below:
T1: RBFOX1 RRM RbFoxmut (Fox-RRM*) (Homo sapiens, UniProt Q9NWB1 109-208, R118D;E147R;N151S;E152T)
T1 sequence: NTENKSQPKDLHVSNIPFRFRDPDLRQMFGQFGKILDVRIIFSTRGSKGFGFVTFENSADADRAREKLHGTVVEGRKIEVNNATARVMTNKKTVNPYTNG

B1: GACACGU (DNA:RNA)
RNA: GGGAGACCGGAAUUCAGAUUGUCCGACACGUUUAAAUCCCGUCGUAGCCACCA
DNA 1: CAATCTGAATTCCGGTCTCCC
DNA 2: TGGTGGCTACGACGGGATT
B2: GCGCUGA (DNA:RNA)
RNA: B1 RNA with A26C, C27G, A28C, C29U, U31A
DNA 1: CAATCTGAATTCCGGTCTCCC
DNA 2: TGGTGGCTACGACGGGATT
B3: UUCAAAU (DNA:RNA)
RNA: B1 RNA with G25U, A26U, C29A, G30A
DNA 1: CAATCTGAATTCCGGTCTCCC
DNA 2: TGGTGGCTACGACGGGATT
B4: UACGCAA (DNA:RNA)
RNA: B1 RNA with G25U, A28G, G30A, U31A
DNA 1: CAATCTGAATTCCGGTCTCCC
DNA 2: TGGTGGCTACGACGGGATT
B5: GUCGACU (DNA:RNA)
RNA: B1 RNA with A26U, A28G, C29A, G30C
DNA 1: CAATCTGAATTCCGGTCTCCC
DNA 2: TGGTGGCTACGACGGGATT
B6: GCCACGG (DNA:RNA)
RNA: B1 RNA with A26C, U31G
DNA 1: CAATCTGAATTCCGGTCTCCC
DNA 2: TGGTGGCTACGACGGGATT
B7: CACAACU (DNA:RNA)
RNA: B1 RNA with G25C, C29A, G30C
DNA 1: CAATCTGAATTCCGGTCTCCC
DNA 2: TGGTGGCTACGACGGGATT
B8: UAGCUAA (DNA:RNA)
RNA: B1 RNA with G25U, C27G, A28C, C29U, G30A, U31A
DNA 1: CAATCTGAATTCCGGTCTCCC
DNA 2: TGGTGGCTACGACGGGATT
B9: UCCACUA (DNA:RNA)
RNA: B1 RNA with G25U, A26C, G30U, U31A
DNA 1: CAATCTGAATTCCGGTCTCCC
DNA 2: TGGTGGCTACGACGGGATT
B10: UAGAGAC (DNA:RNA)
RNA: B1 RNA with G25U, C27G, C29G, G30A, U31C
DNA 1: CAATCTGAATTCCGGTCTCCC
DNA 2: TGGTGGCTACGACGGGATT
B11: GUUUUCG (DNA:RNA)
RNA: B1 RNA with A26U, C27U, A28U, C29U, G30C, U31G
DNA 1: CAATCTGAATTCCGGTCTCCC
DNA 2: TGGTGGCTACGACGGGATT
B12: GUCAAGU (DNA:RNA)
RNA: B1 RNA with A26U, C29A
DNA 1: CAATCTGAATTCCGGTCTCCC
DNA 2: TGGTGGCTACGACGGGATT
B13: AGUGACU (DNA:RNA)
RNA: B1 RNA with G25A, A26G, C27U, A28G, C29A, G30C
DNA 1: CAATCTGAATTCCGGTCTCCC
DNA 2: TGGTGGCTACGACGGGATT
B14: UCCGGUU (DNA:RNA)
RNA: B1 RNA with G25U, A26C, A28G, C29G, G30U
DNA 1: CAATCTGAATTCCGGTCTCCC
DNA 2: TGGTGGCTACGACGGGATT
B15: UUACCGU (DNA:RNA)
RNA: B1 RNA with G25U, A26U, C27A, A28C
DNA 1: CAATCTGAATTCCGGTCTCCC
DNA 2: TGGTGGCTACGACGGGATT
B16: UAUGGCA (DNA:RNA)
RNA: B1 RNA with G25U, C27U, A28G, C29G, G30C, U31A
DNA 1: CAATCTGAATTCCGGTCTCCC
DNA 2: TGGTGGCTACGACGGGATT
B17: CUGAAAA (DNA:RNA)
RNA: B1 RNA with G25C, A26U, C27G, C29A, G30A, U31A
DNA 1: CAATCTGAATTCCGGTCTCCC
DNA 2: TGGTGGCTACGACGGGATT
B18: UAUCCAC (DNA:RNA)
RNA: B1 RNA with G25U, C27U, A28C, G30A, U31C
DNA 1: CAATCTGAATTCCGGTCTCCC
DNA 2: TGGTGGCTACGACGGGATT
B19: GCGUAUA (DNA:RNA)
RNA: B1 RNA with A26C, C27G, A28U, C29A, G30U, U31A
DNA 1: CAATCTGAATTCCGGTCTCCC
DNA 2: TGGTGGCTACGACGGGATT
B20: CUCUUUU (DNA:RNA)
RNA: B1 RNA with G25C, A26U, A28U, C29U, G30U
DNA 1: CAATCTGAATTCCGGTCTCCC
DNA 2: TGGTGGCTACGACGGGATT

The target of the test is T1, RBFOX1 RRM RbFoxmut (Fox-RRM*). The experiment in a line: EMSA; HiTS-Eq, 1 nM pool, 10 min; buffer printed only for the single-RNA assays: 10 mM Tris pH 7.5, 150 mM NaCl, 3.4 mM EDTA, 0.001% NP-40, 30 C. The conditions noted are these: tags: His6 N-terminal (pET28a); label: 5' 32P. A digest of the protocol:
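Purified wild-type or mutant RbFox RRM at increasing concentrations was equilibrated with 1 nM of 5′-radiolabelled RNA carrying 7 randomized nucleotides for 10 min in 50 µL. Unbound RNA was separated by 8% native PAGE and sequenced. Relative association constants came from read-count changes of each RNA species compared with the control reaction, normalised to the cognate motif.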
On the technique in general: A gel shift assay detects complexes by their altered migration in electrophoresis.
For the molecule B1, the binding signal is 0.0904 KA relative to UGCAUGU.
For B2, the binding signal was 0.0698 KA relative to UGCAUGU.
With B3, the binding signal was 0.0826 KA relative to UGCAUGU.
The value for B4 was 0.0748 KA relative to UGCAUGU; that for B5 was 0.0819 KA relative to UGCAUGU; that for B6 was 0.104 KA relative to UGCAUGU.
The value for B7 was 0.083 KA relative to UGCAUGU.
The value for B8 was 0.0901 KA relative to UGCAUGU.
Take B9: the binding signal was 0.062 KA relative to UGCAUGU.
The value for B10 was 0.0828 KA relative to UGCAUGU; that for B11 was 0.0798 KA relative to UGCAUGU.
In the case of B12 it was 0.138 KA relative to UGCAUGU; in that of B13, 0.0797 KA relative to UGCAUGU.
In the case of B14 it was 0.0485 KA relative to UGCAUGU.
Turning to B15, the binding signal is 0.0772 KA relative to UGCAUGU.
In the case of B16 it was 0.0915 KA relative to UGCAUGU; in that of B17, 0.0537 KA relative to UGCAUGU.
In the case of B18 it was 0.0934 KA relative to UGCAUGU; in that of B19, 0.135 KA relative to UGCAUGU; in that of B20, 0.0991 KA relative to UGCAUGU.

The record behind these values is publication PMC9911399, “Two distinct binding modes provide the RNA-binding protein RbFox with extraordinary sequence specificity”.
